The whole screen tested about 360,000 compounds, of which about 7,500 (2.1%) were called active. The shares of active, inactive and inconclusive entries below differ from those in the screen. Calls come from the whole dose curve; as a rule, active = well fitted cell-killing curve with a large enough effect; inconclusive = small, poorly fitted or top-dose-only effect, or effect the other way, or another doubt; inactive = no such curve, though single readings can be large or run the other way. No potency is given beside an inconclusive call; the fits are too rough.
test: qHTS for induction of synthetic lethality in tumor cells producing 2HG: qHTS for the HT-1080-IDH1KD cell line; conditions: HT-1080 IDH1 knockdown viability, ATP luminescence, 48 h; activity, negative = toxicity: at 46.1 µM (top of the series) unless noted;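 for activity, negative = toxicity: 0% = DMSO wells and -100% = cell-free medium wells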
Procedure, shortened: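 After a 2 h attachment period, IDH1KD HT-1080 cells took pin-transferred compound for 48 h at 37 °C; ATP-based luminescence after 10 min room-temperature reagent incubation reported viability.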
Potency is the fitted concentration of half-maximal effect; tags give direction and shape of the fitted curve.

**Q.** Which Potency does the source give for O=c1cc2c(nn1Cc1c(Cl)cccc1Cl)-c1ccccc1CC2 here?
**A.** inconclusive [cytotoxic, single point]

**Q.** Which Potency does the source give for Cc1nnc(SCC(=O)N2c3ccccc3C(C)(c3ccc(Cl)cc3)CC2(C)C)s1 (stereo unspecified) here?
**A.** inconclusive [cytotoxic, single point]

**Q.** Which Potency does the source give for CC(=O)O[C@@H]1[C@@H](O)[C@@H](O)[C@H](Oc2c(-c3ccc(O)cc3)oc3c(CC=C(C)C)c(O)cc(O)c3c2=O)O[C@H]1C here?
**A.** inconclusive [cytotoxic, single point]

**Q.** For FC(F)(F)c1nc2ccccc2n2c(-c3ccc(Cl)cc3)nnc12, which Potency is on record?
**A.** active: 4.61 µM

**Q.** Which activity, negative = toxicity does the source give for CC1CC(C)CN(S(=O)(=O)c2ccc(C(=O)NCCCn3ccnc3)cc2)C1 (stereo unspecified) here?
**A.** inconclusive: -63.4%

**Q.** With Cc1nn2c3ccccc3nc2c2ccccc12 as the compound, how does the Potency read?
**A.** inconclusive [cytotoxic, single point]

**Q.** Which Potency does the source give for NC(=S)N/N=C/c1ccc(C(F)(F)F)cc1 here?
**A.** active: 20.6 µM

**Q.** For CCOc1ccc(NC(=O)CC(C)S(=O)(=O)c2ccc3c(c2)NC(=O)CO3)cc1 (stereo unspecified), which “activity, negative = toxicity” value is on record?
**A.** inactive: 1.31%

**Q.** For Cc1ccc(-c2nn(-c3ccccc3)c3[nH]c(=O)c(CNCc4ccccc4)cc23)cc1, which Potency is on record?
**A.** inconclusive [cytotoxic, single point]

**Q.** With CC(C)N1CCc2c(sc(NC(=O)c3nc4ccccc4s3)c2C(N)=O)C1 as the compound, how does the “activity, negative = toxicity” value read?
**A.** inactive: -28.1%

**Q.** Which Potency does the source give for NS(=O)(=O)c1ccc(CCNCc2ccccc2OCc2ccc(Cl)cc2)cc1 here?
**A.** active: 14.6 µM

**Q.** For O=c1cc(Nc2ccc3c(c2)OCO3)[nH]c(=O)n1-c1ccc(Br)cc1, which Potency is on record?
**A.** active: 35.5 µM

**Q.** For Cc1cc(NC(=O)C2CCCC2)n(-c2nc3ccccc3[nH]2)n1, which Potency is on record?
**A.** active: 3.98 µM

**Q.** Which Potency does the source give for CN1/C(=C\C(=O)COC(=O)c2ccc(O)c(O)c2)C(C)(C)c2ccccc21 here?
**A.** inconclusive [cytotoxic, partial curve]

**Q.** Which “activity, negative = toxicity” value does the source give for O=C1OC[C@H]2CCCN2C(=O)[C@@H](CC(=O)N(CCO)Cc2ccccc2)C/C=C\C[C@H]1Cc1ccc(F)cc1 here?
**A.** inactive: -3.66%

**Q.** Which “activity, negative = toxicity” value does the source give for COC(=O)c1ccc(N2CCN(C)CC2)c(NC(=O)c2ccc(-c3ccc(Cl)cc3)o2)c1 here?
**A.** inactive: -1.26%

**Q.** For CC1=Cc2ccccc2C(C#N)N1C(=O)c1ccccc1 (stereo unspecified), which Potency is on record?
**A.** inconclusive [cytotoxic, single point]

**Q.** Which Potency does the source give for COc1ccc(C(=O)/C=C/c2ccc(N3CCCCC3)c([N+](=O)[O-])c2)c(OC)c1 here?
**A.** inconclusive [cytotoxic, single point]

**Q.** With COc1cnc(-c2ccccc2)nc1Oc1ccc(C(C)(C)C)cc1 as the compound, how does the “activity, negative = toxicity” value read?
**A.** inactive: -11%

**Q.** Which Potency does the source give for COc1cccc(C(O)c2nc(-c3ccc(F)c(Cl)c3)cs2)c1 (stereo unspecified) here?
**A.** inconclusive [cytotoxic, single point]

**Q.** For COc1ccc(Cl)cc1NS(=O)(=O)c1ccc(OC)c(OC)c1, which “activity, negative = toxicity” value is on record?
**A.** inactive: -2.16%

**Q.** For Cc1ccc(Cl)cc1N1CCN(C(=O)Cc2c(C(=O)O)[nH]c3ccc(Cl)cc23)CC1, which Potency is on record?
**A.** inconclusive [cytotoxic, single point]

**Q.** Which “activity, negative = toxicity” value does the source give for COC(=O)Nc1ccc(S(=O)(=O)NNC(=O)c2c(O)c3ccccc3[nH]c2=O)cc1 here?
**A.** inactive: 9.74%

**Q.** Which “activity, negative = toxicity” value does the source give for O=C(O)CSc1cc(C(=O)c2ccccc2O)cn2c(=O)c3c4c(sc3nc12)CCCC4 here?
**A.** inactive: 1.92%

**Q.** For Nc1nc2ccccc2n1S(=O)(=O)c1ccc([N+](=O)[O-])cc1, which Potency is on record?
**A.** inconclusive [cytotoxic, partial curve, poor fit]

**Q.** With O=S(=O)(c1ccc2nc(COc3ccc(Cl)cc3Cl)[nH]c2c1)N1CCOCC1 as the compound, how does the Potency read?
**A.** inconclusive [cytotoxic, single point]

**Q.** With O=C(OCc1ccc(F)cc1)c1ccc2ccccc2n1 as the compound, how does the activity, negative = toxicity read?
**A.** inconclusive: 9.93% [cytotoxic]

**Q.** For O=C1C(C2=C(O)c3ccccc3C2=O)=Nc2ccccc21, which Potency is on record?
**A.** inconclusive [cytotoxic, single point]

**Q.** For O=[N+]([O-])c1cc(S(=O)(=O)C(F)(F)F)ccc1Sc1nc2ccccc2s1, which Potency is on record?
**A.** inconclusive [cytotoxic, single point]

**Q.** Which “activity, negative = toxicity” value does the source give for CCc1c(C)nc2cc(-c3ccc(OC)cc3)[nH]n2c1=O here?
**A.** inactive: 6.59%

**Q.** For CSc1nnc(C(C)(C)C)c(=O)n1/N=C/c1ccc(Cl)cc1, which “activity, negative = toxicity” value is on record?
**A.** inactive: 26.3%

**Q.** With COc1ccc(-c2nc(NC(=O)c3ccc(OCC(=O)Nc4ccc(F)cc4)c(OC)c3)sc2C)cc1 as the compound, how does the Potency read?
**A.** active: 16.4 µM

**Q.** With CC(C)N1CCc2c(sc(NC(=O)CCc3ccccc3)c2C(N)=O)C1 as the compound, how does the “activity, negative = toxicity” value read?
**A.** inactive: -2.72%

**Q.** For CC(C)N(C(=O)COC(=O)c1ccccc1C(=O)c1ccc(Cl)c([N+](=O)[O-])c1)C(C)C, which Potency is on record?
**A.** active: 20.6 µM

**Q.** Which “activity, negative = toxicity” value does the source give for O=C(CCN1C(=O)[C@@H]2Cc3ccccc3CN2C1=O)NCc1ccc(Cl)cc1 here?
**A.** inactive: 4.82%

**Q.** Which “activity, negative = toxicity” value does the source give for CN(Cc1ccno1)Cc1cn(C)nc1-c1ccc(Oc2ccccc2)cc1 here?
**A.** inactive: -1.93%

**Q.** With O=[N+]([O-])c1ccc(/C=N/Nc2nc3ccccc3o2)cc1 as the compound, how does the Potency read?
**A.** inconclusive [rising, full curve, poor fit]

**Q.** For Cn1c(N2CCN(C(c3ccccc3)c3ccccc3)CC2)nc2ccccc21, which Potency is on record?
**A.** inconclusive [cytotoxic, partial curve]

**Q.** For Cc1cc2ncn(/N=C/c3ccc([N+](=O)[O-])o3)c2cc1C, which Potency is on record?
**A.** active: 7.94 µM

**Q.** With COc1ccc(N2CCN(CC(=O)Nc3cccc(S(=O)(=O)N4CCOCC4)c3)CC2)cc1 as the compound, how does the “activity, negative = toxicity” value read?
**A.** inactive: -1.19%

**Q.** Which “activity, negative = toxicity” value does the source give for O=C1N=NC2=C1c1c3ccccc3c(O)n1CC2 here?
**A.** inactive: 16.1%

**Q.** With CCN(CC)C(=O)C1=C(C)N(Cc2ccc(OC)cc2)C(=O)C(CC(=O)NCCCN(C)C)C1 (stereo unspecified) as the compound, how does the “activity, negative = toxicity” value read?
**A.** inactive: 8.32%

**Q.** With CCOc1ccc(C2c3[nH]c4ccccc4c3CCN2CCCn2cccn2)cc1 (stereo unspecified) as the compound, how does the Potency read?
**A.** inconclusive [cytotoxic, partial curve]

**Q.** With Cc1cc(O)c(C(C)C)cc1C1(c2cc(C(C)C)c(O)cc2C)OC(=O)c2ccccc21 as the compound, how does the Potency read?
**A.** active: 16.4 µM

**Q.** Which Potency does the source give for Nc1nnc(CC(=O)N/N=C/c2ccccc2OCc2ccc(F)cc2)s1 here?
**A.** inconclusive [cytotoxic, single point]

**Q.** For O=C1C=C(Nc2ccccc2)C(=O)c2ccccc21, which Potency is on record?
**A.** inconclusive [cytotoxic, single point]

**Q.** For COc1ccc([N+](=O)[O-])cc1N(CC(=O)NC(C(C)C)C(C)C)S(C)(=O)=O, which “activity, negative = toxicity” value is on record?
**A.** inactive: 0%

**Q.** Which “activity, negative = toxicity” value does the source give for Cc1cc(NC(=O)COC(=O)c2ccc(OC(F)(F)F)cc2)no1 here?
**A.** inactive: 11.2%

**Q.** Which “activity, negative = toxicity” value does the source give for CC(CNc1ccccc1O)C(=O)O (stereo unspecified) here?
**A.** inactive: -43.7%

**Q.** For Cc1occc1C(=O)NNC(=S)Nc1cccc([N+](=O)[O-])c1, which Potency is on record?
**A.** inconclusive [cytotoxic, single point]

**Q.** For COc1ccc(Br)cc1/C=N/NC(=O)c1ccc(COc2ccc3c(c2)CCC3)o1, which Potency is on record?
**A.** inconclusive [cytotoxic, single point]

**Q.** For O=C(Nc1ccccc1Br)C1CC(=O)N(c2ccc3c4c(cccc24)CC3)C1 (stereo unspecified), which Potency is on record?
**A.** inconclusive [cytotoxic, single point]

**Q.** For COc1cccc(-c2coc3c(C)c4oc(=O)c(CCC(=O)O)c(C)c4cc23)c1, which Potency is on record?
**A.** inconclusive [cytotoxic, single point]

**Q.** For C/C(=N\NC(=O)c1cccc([N+](=O)[O-])c1)c1cccc(NC(=O)C2CC2)c1, which Potency is on record?
**A.** inconclusive [cytotoxic, single point]

**Q.** Which Potency does the source give for COCCn1nnnc1C(c1cc2c(C)cc(C)cc2[nH]c1=O)N1CCCCCC1 (stereo unspecified) here?
**A.** inconclusive [cytotoxic, partial curve]

**Q.** With O=C(NCC1CCN(Cc2ccccc2Cl)CC1)Nc1cccc(Cl)c1 as the compound, how does the Potency read?
**A.** inconclusive [cytotoxic, single point]

**Q.** Which “activity, negative = toxicity” value does the source give for Cc1ccc(S(=O)(=O)N2CCN(C(=O)n3ccnc3)CC2)cc1 here?
**A.** inactive: 1.75%

**Q.** Which Potency does the source give for O=C(NC(=S)NNC(=O)c1cccs1)c1ccco1 here?
**A.** inconclusive [cytotoxic, single point]

**Q.** Which Potency does the source give for N#CC(=C1C=CC(=NO)C(Cl)=C1)c1ccc(Cl)cc1 here?
**A.** inconclusive [cytotoxic, single point]

**Q.** Which Potency does the source give for CCCCCC(O)c1cccc(OCc2ccc3ccccc3n2)c1 (stereo unspecified) here?
**A.** inconclusive [cytotoxic, partial curve]

**Q.** Which Potency does the source give for CCN(c1ccc(NC(=O)CCc2nc3sc4c(c3c(=O)[nH]2)CCCC4)cc1)C(C)C here?
**A.** inconclusive [cytotoxic, single point]

**Q.** With COc1ccccc1-n1cnc2cc(NCc3ccccc3O)ccc21 as the compound, how does the Potency read?
**A.** inconclusive [cytotoxic, single point]

**Q.** For Oc1ccc(Nc2nc(-c3ccccc3)nc3ccccc23)cc1, which Potency is on record?
**A.** inconclusive [cytotoxic, single point]

**Q.** With Cc1ccccc1NC(=O)CSc1nc(N)c2c3c(sc2n1)CSC(C)(C)C3 as the compound, how does the Potency read?
**A.** inconclusive [cytotoxic, single point]

**Q.** Which Potency does the source give for COc1ccc(N2CCc3c(C)nc4c(OC)cc(OC)cc4c32)c(OC)c1 here?
**A.** inconclusive [cytotoxic, single point]

**Q.** Which Potency does the source give for c1ccc(-c2cc(NCCN3CCCCC3)c3ccccc3n2)cc1 here?
**A.** active: 20.6 µM

**Q.** For O=C(Nc1ccncc1)c1cccc(S(=O)(=O)N2CCc3ccccc32)c1, which Potency is on record?
**A.** inconclusive [cytotoxic, full curve]

**Q.** For Clc1ccc(-n2cc(-c3ccc(Br)cc3)[n+]3c2CCCCC3)cc1, which Potency is on record?
**A.** inconclusive [cytotoxic, single point]

**Q.** Which Potency does the source give for C[C@@]12CCC=C[C@H]1[C@H](c1ccc(/C=C/c3ccccc3)cc1F)N(Cc1ccccc1)C2=O here?
**A.** inconclusive [cytotoxic, single point]

**Q.** For CC(=O)c1cccc(S(=O)(=O)N2CCC(c3nc4ccccc4[nH]3)CC2)c1, which “activity, negative = toxicity” value is on record?
**A.** inactive: -3.37%

**Q.** For Cc1ccc(CN=C(Nc2ccccc2)NC2CCCCC2)cc1, which Potency is on record?
**A.** inconclusive [cytotoxic, single point]

Reference: PubChem BioAssay AID686971 (National Center for Advancing Translational Sciences (NCATS), 2013)
